Results: US10961286B2, “Nucleic acids, vectors, host cells, and methods for recombinantly producing water-soluble membrane proteins” (CORNELL UNIVERSITY, priority 2014, dated 2021)

Method: E. coli strain DH5α was used for cloning while protein expression was carried out in E. coli strain BL21(DE3). Overnight cultures were diluted 1:500 in terrific broth (TB) supplemented with the appropriate antibiotic (50 μg mL^−1 kanamycin or 100 μg mL^−1 ampicillin) and grown at 30° C. until culture optical density (OD600) reached ˜1.0. The temperature was then lowered to 16° C. and protein expression was induced with isopropyl-β-D-thiogalactoside (IPTG) to a final concentration of 0.1 mM. Cells were collected 20 h post induction.
Following protein expression, 20 mL of cells expressing IMP fusions were harvested. Cultures were normalized by OD600 and culture aliquots were pelleted via centrifugation for 10 min at 4° C. and 4,000×g. Cells were then resuspended in lysis buffer containing 30 mM Tris pH 8.0, 500 mM NaCl, and 40 mM imidazole pH 8.0 and lysed using a homogenizer (Avestin Emulsiflex C5). To separate soluble proteins from membranes, the homogenate was ultracentrifuged (100,000×g) for 1 h at 4° C. and the supernatant was collected as the soluble fraction. […] IMPs in the various fractions were separated by SDS-PAGE using 10% polyacrylamide gels (Bio-Rad) and subsequently detected by Western blotting according to standard protocols using a 1:5,000-diluted monoclonal anti-6×-His HRP-conjugated antibody (Abcam).

B1: EmrE: E. coli ethidium multidrug resistance protein E, 110 amino acids, expressed alone (protein, UniProt P23895 1-110, looked up)
Multidrug transporter EmrE: MNPYIYLGGAILAEVIGTTLMKFSEGFTRLWPSVGTIICYCASFWLLAQTLAYIPTGIAYAIWSGVGIVLISLLSWGFFGQRLDLPAIIGMMLICAGVLIINLLSRSTPH
partitioning to soluble, detergent soluble and insoluble fractions of the lysate: detected in the detergent soluble and insoluble fractions only
